Data from PubChem BioAssay AID1347073 (National Center for Advancing Translational Sciences (NCATS), 2019).
The campaign covered roughly 45,000 compounds. About 200 (0.44%) were called active. About 7% were inconclusive and are not listed. Calls come from the whole dose curve; as a rule, active = well fitted activation curve with a large enough effect; inconclusive = small, poorly fitted or top-dose-only effect; inactive = no such curve, though single readings can be large or run the other way. Some of the results follow.

Assay: qHTS of TDP-43 Inhibitors: NCGC Sytravon Library Screen; note: 0% is about no effect; nearly all actives have a fitted effect of over 55% in size
Details: yeast TDP-43 toxicity rescue, BacTiter-Glo growth, 24 h; series mostly up to 46.1 µM; growth rescue (activation): at the top concentration
Method in brief: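 TDP-43-expressing yeast, pregrown in raffinose, seeded at OD600 0.02 in galactose medium with compound for 24 hr at 30 deg C. Growth read by BacTiter-Glo luminescence, so rescue of toxicity appears as activation.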

Row | Compound | growth rescue (activation)
1 | COc1ccc(NS(=O)(=O)c2cc(N)ccc2N2CCCC2)cc1 | inactive: 11.4%
2 | Oc1c(N=Nc2ccccn2)ccc2ccccc12 | inactive: -77.4%
3 | Cc1ccc(C(=O)NCCCNc2ccccc2[N+](=O)[O-])cc1 | inactive: 3.46%
4 | Cc1nnc(NC(=O)CCS(=O)(=O)c2ccccc2)s1 | inactive: -7.48%
5 | O=C(NCc1ccc2c(c1)OCO2)c1cc(COc2c(F)cccc2F)on1 | inactive: 9.37%
6 | COC(=O)C1CCN(C(=O)NC(C)(C)C)CC1 | inactive: 27.2%
7 | CC(C)Oc1ccc(C(CCN)C2CCCCC2)cc1 (stereo not drawn) | inactive: 18%
8 | CC1CCN(CC(=O)Nc2ccc(N3CCCCCC3)cc2)CC1 | inactive: -8.43%
9 | Oc1cccc2ccc(/C=C/c3c(F)cccc3Cl)nc12 | inactive: 14.7%
10 | O=C(NCCN1CCN(c2cccc(Cl)c2)CC1)C1COc2ccccc2C1 (stereo not drawn) | inactive: 6.32%
11 | NS(=O)(=O)c1cccc(Nc2nc3ccccc3nc2NS(=O)(=O)c2ccc(Cl)cc2)c1 | inactive: 11.9%
12 | COc1ccc(NC(=O)Cc2nnc(SCC(=O)NC3CCCC3)n2C)cc1 | inactive: 13.4%
13 | CNC(=S)N1N=C(c2ccccc2)CC1c1ccccc1Cl (stereo not drawn) | inactive: 8.95%
14 | Cc1ccnc2nc(C(=O)OCC(=O)c3c[nH]c4ccccc34)nn12 | inactive: -13.1%
15 | Cc1cccc(NC(=O)CS(=O)CC(=O)Nc2cnc3ccccc3c2)c1C (stereo not drawn) | inactive: -25%
16 | O=C(NCCCNC(=O)c1cnccn1)c1ccc(Br)cc1 | inactive: -17.5%
17 | Cn1nc(C(=O)NNC(=O)c2ccc(Cl)c(S(N)(=O)=O)c2)c2ccccc2c1=O | inactive: -11.9%
18 | CC1(c2ccccc2)CC(C)(C)N(C(=O)c2cccc(Cl)c2)c2ccccc21 (stereo not drawn) | inactive: 0.783%
19 | NC(=O)c1nsc(C(=O)N(Cc2cccnc2)C(C(=O)NC2CCCCC2)c2ccc(F)cc2)c1N (stereo not drawn) | inactive: 3.25%
20 | O=S(=O)(Cc1ccccc1)N1CCN(Cc2ccc(Br)cc2)CC1 | inactive: -1.2%
21 | Cc1ccccc1-c1nc2ccccc2c(=O)n1/N=C/c1ccc([N+](=O)[O-])cc1 | inactive: -69.8%
22 | CC(=O)c1c(C)[nH]c(C(=O)Nc2ccc(S(=O)(=O)N(C)C)cc2)c1C | inactive: -8.32%

Row | Compound | growth rescue (activation)
23 | COc1ccc(NC(=O)c2cc(-c3ccco3)on2)cc1 | inactive: -10.2%
24 | CCCNC(=O)CN1CCN(c2cc3ccccc3c(Cl)n2)CC1 | inactive: -1.16%
25 | CC(c1ccco1)N(C(=O)c1ccccc1F)c1ccccn1 (stereo not drawn) | inactive: 7.17%
26 | COc1ccc(Nc2nc3ccccc3s2)cc1 | inactive: 11.6%
27 | O=S(=O)(NC(=S)NC1CCCCC1)c1ccc(Cl)cc1 | inactive: 22.9%
28 | O=C(c1ccccc1NS(=O)(=O)c1cccc2cccnc12)N1CCOCC1 | inactive: 1.19%
29 | O=C(NC(C(=O)N/N=C/c1c2ccccc2cc2ccccc12)c1n[nH]c(=O)c2ccccc12)c1ccccc1 (stereo not drawn) | inactive: -6.36%
30 | COc1cc(C(=O)NNC(=O)CNC(=O)C2CCCCC2)ccc1OC(C)C | inactive: 6.25%
31 | O=C(Nc1ccccc1Cl)N1CCN(c2ncccn2)CC1 | inactive: 21.2%
32 | COc1cc(CN2C[C@@H](CO)O[C@@H](n3cnc4c(NC5CCCC5)ncnc43)C2)cc(OC)c1OC | inactive: 3.78%
33 | C=CCn1c(SCc2ccc(C(=O)OC)cc2)nnc1-c1sc(N)nc1C | inactive: 14.4%
34 | O=C(Nc1nc2ccccc2[nH]1)C1CCN(S(=O)(=O)c2cccs2)CC1 | inactive: 16.2%
35 | COc1ccc(C)cc1NC(=O)NC(C)c1c(-n2cccc2)sc(C)c1C (stereo not drawn) | inactive: 10.1%
36 | CCOc1cccc(CN2CCN(Cc3ccc(C)o3)C(CCO)C2)c1O (stereo not drawn) | inactive: 9%
37 | CC(=O)c1ccc(Nc2cc(C)nc3ccccc23)cc1 | inactive: 9.78%
38 | Cc1ccc(Cl)cc1NC(=O)Cn1c(=O)n(CCC(=O)NCc2ccc3c(c2)OCO3)c(=O)c2sccc21 | inactive: 12.1%
39 | NS(=O)(=O)c1ccc(CCNC(=O)c2ccc(Cl)c(S(=O)(=O)N3CCCCC3)c2)cc1 | inactive: 23.3%
40 | O=S(=O)(c1ccccc1)c1nc(-c2ccccc2Cl)oc1NCCCN1CCOCC1 | inactive: -5.55%
41 | COc1ccccc1C(=O)N/C(=C/c1ccc2c(c1)OCO2)C(=O)Nc1cccc(C(=O)O)c1 | inactive: 6.26%
42 | Cc1cc(C(=O)CN2C(=O)NC(CC(C)C)C2=O)c(C)n1C1CC1 (stereo not drawn) | inactive: -41.8%
43 | Cc1ccc(Nc2c(-c3ccccc3)nc3cnccn23)cc1 | inactive: 8.7%
44 | O=C(/C=C/c1ccccc1)NCCOc1ccccc1 | inactive: 4.21%

Row | Compound | growth rescue (activation)
45 | COc1ccc(NC(=O)c2cc3c(s2)CCC(C)C3)cc1S(=O)(=O)N1CCOCC1 (stereo not drawn) | inactive: 14.4%
46 | CC1CC(C)CN(C(=O)C(C)N2CCN(S(=O)(=O)c3ccc(Br)s3)CC2)C1 (stereo not drawn) | inactive: 20.8%
47 | COc1ccc(/C(N)=N/OC(=O)COc2ccccc2Cl)cc1 | inactive: -2.15%
48 | Cc1ccc(/C=N/NC(=O)CSc2nnc(-c3ccc(Cl)cc3)n2-c2ccccc2)o1 | inactive: 22.6%
49 | O=c1[nH]c(CN2CCN(S(=O)(=O)/C=C/c3ccccc3)CC2)nc2cc(Cl)ccc12 | inactive: 20%
50 | Cn1/c(=N/NC(=O)c2ccccc2Br)sc2ccccc21 | inactive: 2.38%
51 | COc1ccc(-c2cc(-c3nnc(-c4ccncc4)o3)c3ccccc3n2)cc1 | inactive: 12.4%
52 | Cc1ccc(-c2cc(C(=O)N3CCOCC3)c3ccccc3n2)o1 | inactive: 1.91%
53 | CCN(CC)CC#CCC(O)(c1ccccc1)c1ccc(Br)cc1 (stereo not drawn) | inactive: -1.28%
54 | CCc1ccc2nc(NC(=O)c3ccc(N4C(=O)CCC4=O)cc3)sc2c1 | inactive: 39.3%
55 | CC12CCCC[C@@H]1CCC1C2CCC2(C)C1CC[C@@]2(O)CNCCO (stereo partly drawn) | inactive: 8.3%
56 | O=C1CCCN1c1ccc(S(=O)(=O)N2CCCCC2)cc1 | inactive: 2.8%
57 | O=C(O)c1ccccc1NS(=O)(=O)c1ccc2c(c1)OCCO2 | inactive: -3.36%
58 | Cc1ccc(Cl)cc1NC(=O)Cn1c(=O)oc2cc(S(=O)(=O)N3CCCC3)ccc21 | inactive: -4.02%
59 | Nc1cc(N)nc(SCC(=O)NC(=O)NC2CCCC2)n1 | inactive: 13.2%
60 | O=C(NC(=S)NC1CCS(=O)(=O)C1)c1cccs1 (stereo not drawn) | inactive: 7.64%
61 | O=C(Nc1ccccc1)OCc1cncs1 | inactive: 5.51%
62 | CCCC(=O)Oc1ccc(C2NC(=O)c3ccccc3O2)cc1OC (stereo not drawn) | inactive: 5.97%
63 | CC(=O)Nc1c(O)nc(SCC(=O)Nc2nnc(SCc3ccccc3)s2)[nH]c1=O | inactive: -2.97%
64 | CCSc1nnc(-c2ccccc2NC(=O)CC)c(=O)[nH]1 | inactive: 2.07%
65 | COC(=O)CC1C(=O)NCCN1Cc1cn(-c2ccc(C)cc2)nc1-c1cccc(C)c1 (stereo not drawn) | inactive: 27.5%
66 | CSc1ccc(CNCC2CCCO2)cc1 (stereo not drawn) | inactive: -4.1%

Row | Compound | growth rescue (activation)
67 | CS(=O)(=O)c1ccc(N2CCN(c3ccccn3)CC2)c([N+](=O)[O-])c1 | inactive: 3.54%
68 | CCC(C)Nc1nc(N)c([N+](=O)[O-])c(NC2CCCCC2)n1 (stereo not drawn) | inactive: 6.95%
69 | CCOC(=O)C1(Cc2ccccc2C)CCCN(Cc2ccc(NC(C)=O)cc2)C1 (stereo not drawn) | inactive: 8.32%
70 | CC[N+]1(CC(O)COC2CC(C)CC(C)(C)C2)CCOCC1 (stereo not drawn) | inactive: -14.7%
71 | O=C(Cc1cccc2ccccc12)Nc1ccc(-c2cc3ccccc3oc2=O)cc1 | inactive: 9.93%
72 | O=c1cc(/N=C/c2coc3cc(Br)ccc3c2=O)[nH]c(=S)[nH]1 | inactive: 0.366%
73 | COc1ccccc1CNC(=O)CCc1nc2ccccc2c(=O)[nH]1 | inactive: 0.194%
74 | COc1ccccc1C(C)NCC(=O)NCC(=O)Nc1ccc(F)c(F)c1F (stereo not drawn) | inactive: 3.47%
75 | Cc1ccccc1OCCNC(=O)CSc1ccc(C(F)(F)F)cc1[N+](=O)[O-] | inactive: 1.03%
76 | O=C(COc1cccnc1[N+](=O)[O-])Nc1ccc2c(c1)OCO2 | inactive: 5.58%
77 | Cc1ccc(C(=O)N(CC(=O)Nc2ccc(Cl)c(Cl)c2)Cc2ccco2)cc1 | inactive: 9.91%
78 | CCn1c(C)nc2cc(S(=O)(=O)Nc3ccc(C)cc3)ccc21 | inactive: 1.78%
79 | CCC(C)NCCOCCOc1ccc(Br)cc1 (stereo not drawn) | inactive: -4.53%
80 | CCCC1(CCC)NC(=O)N(CC(=O)Nc2ccc(Cl)c(S(=O)(=O)N3CCOCC3)c2)C1=O | inactive: 3.09%
81 | CC1CCCC(NC(=O)C2CCC(CNc3c(N4CCCCC4)c(=O)c3=O)CC2)C1C (stereo not drawn) | inactive: -5.16%
82 | O=C1[C@@H]2[C@@H]3C[C@@H]([C@H]4ON=C(c5ccc(Cl)cc5Cl)[C@@H]34)[C@@H]2C(=O)N1C1CCCCC1 | inactive: 25.5%
83 | CS(=O)(=O)N1CCC(Oc2ccccc2C(=O)NCCCc2cccnc2)CC1 | inactive: 12.1%
84 | COc1ccc(CNC(=O)c2ccc(N3CCOCC3)c([N+](=O)[O-])c2)cc1 | inactive: 1.22%
85 | COc1ccc(C(CC(=O)Nc2ccccn2)N2Cc3ccccc3C2=O)cc1 (stereo not drawn) | inactive: 4.05%
86 | CN1CCN(C(=O)/C(=C/c2cccs2)NC(=O)c2ccco2)CC1 | inactive: -21.9%
87 | O=C(c1cccc(Cl)c1)C1CCCN(Cc2ccc(N3CCNC3=O)cc2)C1 (stereo not drawn) | inactive: 4.33%
88 | O=[N+]([O-])c1ccccc1/C=N/n1c(-c2ccccc2)n[nH]c1=S | inactive: -7.79%

Row | Compound | growth rescue (activation)
89 | Cc1cccc(C(=O)NCCCNC(=O)c2cccnc2)c1 | inactive: -4.08%
90 | COCC1CCN(Cc2cn(Cc3ccccc3)nc2-c2cc3ccccc3o2)CC1 | inactive: 9.88%
91 | O=C(NCCCn1ccnc1)c1cc(Cl)cc(Cl)c1 | inactive: -3.99%
92 | CC(=O)Nc1cccc(-c2ccnc3c2CC(C(=O)NCCC(F)(F)F)O3)c1 (stereo not drawn) | inactive: 9.36%
93 | COc1ccc(-c2cc(C(=O)Nc3cc(C)on3)no2)cc1 | inactive: 3.2%
94 | CCC1Oc2ccc(C)cc2N(CC(=O)NCCCN2CCCC2)C1=O (stereo not drawn) | inactive: 7.19%
95 | CCOC(=O)C1(Cc2ccccc2C(F)(F)F)CCN(CC2CC2)CC1 | inactive: 7.42%
96 | O=S1(=O)N=C2CCCCCN2C(c2ccc(Br)cc2)N1 (stereo not drawn) | inactive: 4.21%
97 | COc1ccc(C2=NOC(C(=O)Nc3ccc4c(c3)OCO4)C2)cc1OC (stereo not drawn) | inactive: 10.7%
98 | Cc1ccc2cc(C=O)c(Cl)nc2c1 | inactive: -10.5%
99 | CC(C)C(OC(=O)c1ccco1)C(=O)NC1CCCCC1 (stereo not drawn) | inactive: -13.1%
100 | COc1ccc(-c2nnc3n2CCCCC3)cc1 | inactive: 6.62%
101 | O=C(CSc1nn(-c2ccccc2)c(=S)s1)NC1CCS(=O)(=O)C1 (stereo not drawn) | inactive: 15.6%
102 | CCS(=O)(=O)N1CCC(C(=O)O)CC1 | inactive: 12.1%
103 | Cc1ccc(S(=O)(=O)N2CCN(c3ncccn3)CC2)cc1C | inactive: -2.79%
104 | CCc1nc2c(OCCC3CCCCC3)cccn2c1N(C)C(=O)c1ccc(OC)cc1 | inactive: -8.17%
105 | COc1ccc(-c2cc3nc(CCl)[nH]c(=O)c3s2)cc1 | inactive: -4.64%
106 | O=C(NC1CCCCC1)c1cccnc1Sc1ccccc1 | inactive: 5.03%
107 | C=CCc1c(C)nc2c(-c3ccccc3)cnn2c1N1CCOCC1 | inactive: 19.8%
108 | CC(C)(C)NC(=O)C(c1ccccn1)N(C(=O)c1csnn1)C1CCCC1 (stereo not drawn) | inactive: 0.684%
